Data as given in PubChem BioAssay AID504332 (National Center for Advancing Translational Sciences (NCATS), 2011).
Hit rate of the full screen: of about 350,000 compounds, about 31,000 (8.9%) were called active. Inconclusive means that the source gave no clear call. Such entries were picked first, then a sample of the others. Calls come from the whole dose curve; as a rule, active = well fitted inhibition curve with a large enough effect; inconclusive = small, poorly fitted or top-dose-only effect; inactive = no such curve, though single readings can be large or run the other way. A potency beside an inconclusive call is a rough fit, not a confirmed value.
% is set by controls: 0 for no effect and ±100 for the full control effect; potency is the fitted concentration of half-maximal effect; tags give direction and shape of the fitted curve.
Note: nearly all actives have a fitted effect of over 75% in size.

The compounds below were run against Histone-lysine N-methyltransferase EHMT2 (Homo sapiens) (UniProt Q96KQ7) (assay: qHTS Assay for Inhibitors of Histone Lysine Methyltransferase G9a). Details: G9a H3K9 monomethylation, AlphaScreen, 2 h; activity, negative = inhibition: at 59 µM (top of the series) unless noted.
Sequence of UniProt Q96KQ7 (Q96KQ7 whole entry, looked up): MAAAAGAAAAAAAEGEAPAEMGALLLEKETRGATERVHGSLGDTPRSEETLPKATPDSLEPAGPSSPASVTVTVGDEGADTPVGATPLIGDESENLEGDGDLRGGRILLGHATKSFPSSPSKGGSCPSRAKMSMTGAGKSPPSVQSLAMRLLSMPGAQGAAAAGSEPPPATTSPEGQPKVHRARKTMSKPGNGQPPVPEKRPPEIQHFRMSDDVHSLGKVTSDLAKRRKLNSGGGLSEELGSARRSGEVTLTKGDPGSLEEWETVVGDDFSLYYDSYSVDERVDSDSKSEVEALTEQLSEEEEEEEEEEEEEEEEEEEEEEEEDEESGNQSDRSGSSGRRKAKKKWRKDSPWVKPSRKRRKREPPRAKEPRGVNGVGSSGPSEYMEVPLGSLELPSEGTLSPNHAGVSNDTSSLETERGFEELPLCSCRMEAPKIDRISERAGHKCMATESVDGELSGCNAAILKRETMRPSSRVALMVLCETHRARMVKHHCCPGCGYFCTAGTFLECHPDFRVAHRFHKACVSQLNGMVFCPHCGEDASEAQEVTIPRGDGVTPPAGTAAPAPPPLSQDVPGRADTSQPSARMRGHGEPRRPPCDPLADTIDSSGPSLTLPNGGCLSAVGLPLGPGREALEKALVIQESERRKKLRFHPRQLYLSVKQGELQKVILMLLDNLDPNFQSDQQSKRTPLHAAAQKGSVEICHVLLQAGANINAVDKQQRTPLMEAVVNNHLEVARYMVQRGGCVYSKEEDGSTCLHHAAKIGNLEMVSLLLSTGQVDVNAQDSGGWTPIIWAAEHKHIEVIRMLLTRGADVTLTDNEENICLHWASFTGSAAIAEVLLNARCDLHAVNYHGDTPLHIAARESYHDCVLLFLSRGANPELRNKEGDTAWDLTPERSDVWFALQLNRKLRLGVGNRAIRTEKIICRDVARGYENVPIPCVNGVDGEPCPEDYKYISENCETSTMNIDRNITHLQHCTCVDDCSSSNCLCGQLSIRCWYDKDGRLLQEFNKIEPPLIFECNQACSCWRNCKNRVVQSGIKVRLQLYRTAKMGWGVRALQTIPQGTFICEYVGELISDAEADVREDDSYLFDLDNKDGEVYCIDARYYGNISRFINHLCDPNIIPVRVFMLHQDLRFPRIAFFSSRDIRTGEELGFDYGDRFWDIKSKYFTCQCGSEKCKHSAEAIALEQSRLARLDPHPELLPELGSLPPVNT
How it was run: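 Compounds were preincubated with 20 nM G9a for 15 min, after which biotinylated H3K9 peptide (500 nM) and SAM (20 uM) started a 2 h room-temperature reaction. Monomethylated product was quantified by antibody-based AlphaScreen chemiluminescence.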
For CC1=NN(c2ccccc2)C(=O)C1C(=O)c1ccccc1 (stereo unspecified), the Potency was inconclusive: 25.1 µM [inhibitor, single point].
For COCCn1c(=O)c(-c2ccc(Cl)cc2)nc2cnc(N3CCNCC3)nc21, the activity, negative = inhibition was inactive: -3.75% [at 0.501 µM].
For COC(=O)N/N=C/c1cn(CCOc2ccc(OC)cc2)c2ccccc12, the Potency was inconclusive: 79.4 µM [inhibitor, single point].
With CCc1nnc(N/N=C/c2cc(Br)c(O)cc2O)n1N the Potency was active: 50.1 µM.
In the case of Cc1ccc(-c2ccc(/C=N/O)o2)cc1[N+](=O)[O-], the Potency was inconclusive: 44.7 µM [inhibitor, partial curve, poor fit].
CC1=C(C(=O)O)N2C(=O)C(NC(=O)c3ccccc3Cl)C2SC1 (stereo unspecified) was tested, and the Potency was active: 1.78 µM.
For Cc1nc2sc(C(c3ccc(C(C)C)cc3)N3CCN(CCO)CC3)c(O)n2n1 (stereo unspecified), the Potency was inconclusive: 28.2 µM [inhibitor, partial curve, poor fit].
CCCSC1=C(C#N)C(c2ccccc2OCC)CC(=O)N1 (stereo unspecified) was tested, and the Potency was inconclusive: 10 µM [inhibitor, partial curve].
CCOc1ccc(OCC)c(NC(=O)CCc2c(C)nc3c(c2C)c(=O)n(C)c(=O)n3C)c1 was tested, and the “activity, negative = inhibition” value was inactive: 8.85%.
For CNC1(C(N)=O)CCNCC1, the activity, negative = inhibition was inactive: 5.4% [at 12.7 µM].
With CC1CCN(C(=S)c2cccc(O)c2)CC1 the Potency was active: 14.1 µM.
For O=C(O)C1CC=CCC1C(=O)Nc1cccnc1 (stereo unspecified), the Potency was inconclusive: 15.8 µM [inhibitor, partial curve, poor fit].
With CN1CCN(C2=Nc3c(Cl)cc(Cl)c4cccc2c34)CC1 the Potency was inconclusive: 28.2 µM [inhibitor, full curve, poor fit].
For O=S(=O)([O-])CCC[n+]1c(/C=C\Nc2ccccc2)oc2ccc(-c3ccccc3)cc21, the “activity, negative = inhibition” value was inactive: -35.5% [at 102 µM].
CCOC(=O)C(C)Sc1nc2c(c(=O)[nH]c(=O)n2C)n1CCc1ccccc1 (stereo unspecified) was tested, and the Potency was inconclusive: 50.1 µM [inhibitor, partial curve, poor fit].
With Cc1c(C)c2ccc(OC(C)C(=O)NC3CC(C)(C)NC(C)(C)C3)cc2oc1=O (stereo unspecified) the Potency was inconclusive: 28.2 µM [inhibitor, single point].
With COc1ccc(S(=O)(=O)N(CCCN2CCCC2=O)Cc2cc3cc(C)c(C)cc3[nH]c2=O)cc1 the “activity, negative = inhibition” value was inactive: 5.94% [at 102 µM].
COc1ccc(/C=C/c2noc(-c3ccccc3O)n2)cc1OC was tested, and the Potency was inconclusive: 0.708 µM [inhibitor, partial curve, poor fit].
With Cc1ccc(O)c(NC(=O)c2cccc(S(=O)(=O)N3CCCCC3)c2)c1 the “activity, negative = inhibition” value was inactive: -48.4%.
COc1ccc(OC)c(C2=NS(=O)(=O)N(C)C(C(=O)Nc3cccc(C(C)=O)c3)=C2)c1 was tested, and the Potency was active: 44.7 µM.
COc1cccc(CNC(=O)COC(=O)c2ccc(C(=O)c3ccccc3)cc2)c1 was tested, and the Potency was inconclusive: 1.12 µM [inhibitor, single point].
CC(OC(=O)c1ccncc1)C(=O)Nc1cccc([N+](=O)[O-])c1 (stereo unspecified) was tested, and the Potency was inconclusive: 7.08 µM [inhibitor, partial curve, poor fit].
For c1csc(CSc2nc3ccccc3s2)c1, the “activity, negative = inhibition” value was inactive: 313% [at 102 µM].
Cc1c(NC(=O)/C=C/c2cn(-c3ccccc3)nc2-c2ccc(F)cc2)c(=O)n(-c2ccccc2)n1C was tested, and the Potency was inconclusive: 89.1 µM [inhibitor, single point].
Cc1ccc(CCC(=O)NCc2ccccc2)o1 was tested, and the Potency was active: 79.4 µM.
CCC1(c2ccccc2)NC(=O)N(CC(=O)NC2(C#N)CCCCC2)C1=O (stereo unspecified) was tested, and the Potency was inconclusive: 89.1 µM [inhibitor, single point].
In the case of CC(=O)c1ccc(-n2c(C)ccc2-c2ccccc2)cc1, the Potency was inconclusive: 25.1 µM [inhibitor, single point].
COCCNc1nc(=S)[nH]c2cc(OC)c(OC)cc12 was tested, and the Potency was active: 35.5 µM.
Cc1cc(C)cc(-n2nnc(-c3nc(-c4ccccc4F)no3)c2C)c1 was tested, and the “activity, negative = inhibition” value was inactive: -6.21%.
In the case of COc1cc(CN2CCN(C(=O)c3ccccc3F)CC2)cc(OC)c1OC, the Potency was active: 22.4 µM.
In the case of O=C(Nc1ccc2c(c1)OCO2)C1CCN(C(=O)CSc2ncnc3ccccc23)CC1, the Potency was inconclusive: 44.7 µM [inhibitor, partial curve].
With Cc1ccc(NCCC(=O)c2cccs2)cc1C the Potency was active: 31.6 µM.
For O=[N+]([O-])c1cc(/C=N\Nc2nccs2)ccc1O, the activity, negative = inhibition was inactive: -6.08% [at 2.33 µM].
In the case of O=C(Cn1c2ccccc2c(=O)c2ccccc21)Nc1cccc(F)c1, the “activity, negative = inhibition” value was inactive: 13% [at 102 µM].
In the case of Cc1ccccc1OCCn1c(=S)[nH]c2ccccc21, the Potency was active: 39.8 µM.
With COc1ccc(N2CCN(S(=O)(=O)c3ccc4c(c3)CCCC4)CC2)c([N+](=O)[O-])c1 the Potency was active: 17.8 µM.
In the case of CCOc1ccccc1NC(=O)CN1C(=O)C2(SCC(=O)N2c2cccc(F)c2)c2ccccc21 (stereo unspecified), the “activity, negative = inhibition” value was inactive: 2.43%.
Cc1cccc(C)c1-n1cccc1/C=C1\SC(=S)N(c2cccc(C(=O)O)c2)C1=O was tested, and the Potency was inconclusive: 39.8 µM [inhibitor, partial curve, poor fit].
In the case of COc1ccc(C(=O)/C(=C/O)N=Nc2ccc(F)cc2)cc1, the Potency was inconclusive: 17.8 µM [inhibitor, full curve].
For CCC(=O)Nc1cc(C(=O)O)ccc1Sc1ccc(C)cc1, the Potency was inconclusive: 79.4 µM [inhibitor, single point].
For CC(C)C(NS(=O)(=O)c1cccs1)C(=O)NCCN1CCN(c2ccccc2)CC1 (stereo unspecified), the “activity, negative = inhibition” value was inactive: 9.95% [at 102 µM].
CC(C)c1ccc(NC(=O)CSc2nc3ccccc3nc2Cc2ccccc2)cc1 was tested, and the “activity, negative = inhibition” value was inactive: 11%.
O=C1CCC(=O)N1CCC(c1ccc(F)cc1)c1ccco1 (stereo unspecified) was tested, and the activity, negative = inhibition was inactive: 4.68% [at 12.7 µM].
For COC(=O)c1cc2oc(C)cc2n1CC(=O)Nc1ccc(C)c(C)c1, the activity, negative = inhibition was inconclusive: -78.7% [inhibitor].
With O=C(O)CCCc1c(-[n+]2ccccc2)[nH]c2ccccc12 the “activity, negative = inhibition” value was inactive: -29.5% [at 102 µM].
For COc1ccc(-c2csc3ncnc(N4CCN(S(=O)(=O)c5ccc(C(C)=O)cc5)CC4)c23)cc1, the “activity, negative = inhibition” value was inactive: -37.6% [at 102 µM].
In the case of COc1ccc(CCNC(=O)CCc2ccc(OC)cc2)cc1, the “activity, negative = inhibition” value was inactive: 29.3% [at 102 µM].
In the case of CN(C)S(=O)(=O)c1ccc(C(=O)Nc2ccc(F)cc2F)cc1, the Potency was inconclusive: 44.7 µM [inhibitor, partial curve].
With CCCC(=O)C1C(=O)CC(C)(C)C(c2cc(C)no2)C1=O (stereo unspecified) the Potency was inconclusive: 39.8 µM [inhibitor, single point].
For CC1CCn2c(nc3cc(C(=O)NCc4ccc(OC(C)C)cc4)ccc32)C1 (stereo unspecified), the “activity, negative = inhibition” value was inactive: -4.27%.
With O=C(CSc1nc(N2CCCCC2)nc(N2CCCCC2)n1)c1ccccc1 the activity, negative = inhibition was inactive: 5.2% [at 12.7 µM].
With COc1ccc(CN2CCNC(=O)C2CC(=O)N2CCCN(C(C)=O)CC2)c(OC)c1 (stereo unspecified) the “activity, negative = inhibition” value was inactive: -5.81% [at 102 µM].
With COc1ccc(S(=O)(=O)N2CCCN(C)CC2)cc1 the Potency was inconclusive: 89.1 µM [inhibitor, single point].
For CN(CC(=O)Nc1ccc(N2CCOCC2)cc1)C(=O)COc1ccccc1F, the Potency was inconclusive: 28.2 µM [inhibitor, single point].
In the case of O=C(O/N=C\c1ccc(N2CCCCC2)c([N+](=O)[O-])c1)c1ccc(Cl)cc1Cl, the Potency was active: 39.8 µM.
In the case of CSc1nnc(-c2cccs2)n1C, the “activity, negative = inhibition” value was inactive: 2.9% [at 102 µM].
In the case of CSc1nc(SCCN(C)C)c2c3c(sc2n1)COC(C)(C)C3, the Potency was inconclusive: 35.5 µM [inhibitor, partial curve, poor fit].
With COC(=O)N/N=C(\C)c1ccc(OC(F)F)cc1 the “activity, negative = inhibition” value was inactive: -11.8% [at 102 µM].
For CC(C)c1ccccc1NC(=O)COc1ccc(C(=O)NCCc2ccccc2)cc1, the Potency was inconclusive: 20 µM [inhibitor, single point].
For O=[N+]([O-])c1ccc(NC(=S)N2CCc3ccccc32)cc1, the Potency was active: 35.5 µM.
In the case of COC(=O)C1=C(C(=O)OC)[C@@H]2N(C)c3ccc(OC)cc3[C@@]23C[C@@H](C(=O)OC)N(C(=O)c2ccc(Br)cc2)C3=N1, the Potency was inconclusive: 12.6 µM [inhibitor, single point].
With Cc1ccc(S(=O)(=O)N(C)Cc2nc(-c3ccccc3)oc2C)cc1 the Potency was inconclusive: 39.8 µM [inhibitor, single point].
With COCCN(C(=O)c1csnn1)C(C(=O)NC1CCCCC1)c1sccc1C (stereo unspecified) the Potency was inconclusive: 4.47 µM [inhibitor, partial curve, poor fit].
In the case of Cc1cc(C(=O)OCC(=O)N2CCCC2)c2ccccc2n1, the “activity, negative = inhibition” value was inactive: -18% [at 102 µM].
With COc1ccc(Cn2ccc3nc(C)c(C(=O)N4CCN(c5ccc(OC)cc5)CC4)cc3c2=O)cc1 the Potency was inconclusive: 39.8 µM [inhibitor, single point].
For O=C(CSCc1ccc(Cl)cc1)c1ccco1, the Potency was inconclusive: 3.16 µM [inhibitor, full curve, poor fit].
For CCNC(=S)NNC(=O)c1ccccc1Cl, the “activity, negative = inhibition” value was inactive: 5.18%.
For COc1c(OC)c(O)c2c(=O)cc(-c3c(O)cccc3O)oc2c1OC, the activity, negative = inhibition was inactive: 12.8% [at 12.7 µM].
For Cc1[nH]c2ccccc2c1C(Nc1nccs1)c1ccncc1 (stereo unspecified), the “activity, negative = inhibition” value was inactive: -17%.
Cc1ccc(S(=O)(=O)Nc2ccc(N3CCN(C)CC3)nc2)cc1 was tested, and the Potency was inconclusive: 39.8 µM [inhibitor, full curve].
Cc1cc(C)cc(NC(=S)NC(=O)CCN2C(=O)c3ccccc3C2=O)c1 was tested, and the Potency was inconclusive: 79.4 µM [inhibitor, single point].
For COc1ccc(CN(Cc2cccn2C)C(=O)c2cc3cc(OC)ccc3[nH]2)cc1, the Potency was active: 50.1 µM.
In the case of Cc1nc2c(OCc3ccccc3)cccn2c1CC#N, the Potency was “inactive”.
With Fc1cccc(CSc2nc3ncccc3[nH]2)c1 the “activity, negative = inhibition” value was inactive: -10.6%.
For Cc1cc(C)cc(NC(=O)Cc2c(C(=O)O)c(C)cn2C)c1, the “activity, negative = inhibition” value was inactive: -10.5%.
For O=C(NCc1ccco1)c1ccc2c(c1)N(Cc1c(F)cccc1Cl)C(=O)c1ccccc1S2, the Potency was inconclusive: 8.91 µM [inhibitor, partial curve, poor fit].
